Assay results taken from the supplement of paper PMC7266297.
Counter-ions that a name gives are not always drawn. This is one part of the list. Single values are uncertain, as repeats are few or missing.

What was measured:
KB-3-1 = assay: growth inhibition relative to DMSO control (SRB); cervical cancer cells: KB-3-1 is the parent and KB-V1 overexpresses MDR1; SRB is the sulforhodamine B stain; higher = more growth inhibition; conditions: 1 µM; 72 h
KB-V1 = assay: as above; conditions: 1 µM; 72 h
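Note: Read-out is SRB optical density at 490 nm, with the control being wells given 0.5% DMSO vehicle, and compound added one day after cells were plated.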

Compound	growth inhibition (KB-3-1)	growth inhibition (KB-V1)
Cc1nc(C#Cc2ccnc(Cl)c2)c(C)n1-c1ccc(OC(F)(F)F)cc1	31%	37.1%
CC(=O)Nc1nc2c(Oc3cc(-c4ccc(C(F)(F)F)cc4)ncn3)cccc2s1	< 0%	< 0%
C[C@H](NC(=O)Cc1cc(F)cc(F)c1)C(=O)N[C@@H]1C(=O)N(C)c2ccccc2-c2ccccc21	< 0%	< 0%
CC(C)C[C@H](NC(=O)CNC(=O)c1cc(Cl)ccc1Cl)B1OC(=O)C(CC(=O)O)(CC(=O)O)O1	< 0%	< 0%
CCN(CC)CCNC(=O)c1c(C)[nH]c(/C=C2\C(=O)Nc3ccc(F)cc32)c1C [Sunitinib Malate]	39.3%	28.3%
COc1cc2/c(=N/c3ccc(Br)cc3F)nc[nH]c2cc1OCC1CCN(C)CC1 [Vandetanib (ZD6474)]	67.5%	41%
CC(C)(C)c1cc(C(C)(C)C)c(NC(=O)c2c[nH]c3ccccc3c2=O)cc1O [Ivacaftor (VX-770)]	38%	52.6%
CCOc1cc([C@@H](CS(C)(=O)=O)N2C(=O)c3cccc(NC(C)=O)c3C2=O)ccc1OC	43.7%	5.56%
OC[C@H]1O[C@@H](c2ccc(Cl)c(Cc3ccc(O[C@H]4CCOC4)cc3)c2)[C@H](O)[C@@H](O)[C@@H]1O	50%	5.56%
CNC(=O)c1cc(Oc2ccc(NC(=O)Nc3ccc(Cl)c(C(F)(F)F)c3)cc2)ccn1 [Sorafenib Tosylate]	6.63%	17.8%
CC1CCN(CC[C@H]2CCCN2S(=O)(=O)c2cccc(O)c2)CC1	43%	9.13%
CC(C)(C)c1nc(-c2cccc(NS(=O)(=O)c3c(F)cccc3F)c2F)c(-c2ccnc(N)n2)s1	65.9%	19.5%
